Source: PMC4792416
Results are given in words; binding and its absence hold for the method and conditions named. For some assays here: In cells and extracts the contact can be indirect. Some binding calls cover weakened binding; strength is not graded here. Tags and fused reporters may be left off the sequences shown.

Amino acid sequences for entries named in this document (tags omitted).
UniProt P43297: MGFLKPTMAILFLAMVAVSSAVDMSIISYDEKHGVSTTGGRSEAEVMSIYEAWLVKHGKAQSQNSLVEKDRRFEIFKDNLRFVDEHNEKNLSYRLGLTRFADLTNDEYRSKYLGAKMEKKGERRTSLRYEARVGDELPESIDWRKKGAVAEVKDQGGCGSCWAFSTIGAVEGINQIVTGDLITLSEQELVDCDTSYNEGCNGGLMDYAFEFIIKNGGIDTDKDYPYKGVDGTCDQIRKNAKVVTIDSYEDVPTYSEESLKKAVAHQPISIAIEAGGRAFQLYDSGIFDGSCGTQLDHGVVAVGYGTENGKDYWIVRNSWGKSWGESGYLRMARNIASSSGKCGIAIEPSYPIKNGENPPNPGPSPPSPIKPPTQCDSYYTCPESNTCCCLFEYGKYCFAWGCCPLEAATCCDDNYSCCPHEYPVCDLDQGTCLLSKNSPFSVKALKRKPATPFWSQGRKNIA
UniProt Q94BT6: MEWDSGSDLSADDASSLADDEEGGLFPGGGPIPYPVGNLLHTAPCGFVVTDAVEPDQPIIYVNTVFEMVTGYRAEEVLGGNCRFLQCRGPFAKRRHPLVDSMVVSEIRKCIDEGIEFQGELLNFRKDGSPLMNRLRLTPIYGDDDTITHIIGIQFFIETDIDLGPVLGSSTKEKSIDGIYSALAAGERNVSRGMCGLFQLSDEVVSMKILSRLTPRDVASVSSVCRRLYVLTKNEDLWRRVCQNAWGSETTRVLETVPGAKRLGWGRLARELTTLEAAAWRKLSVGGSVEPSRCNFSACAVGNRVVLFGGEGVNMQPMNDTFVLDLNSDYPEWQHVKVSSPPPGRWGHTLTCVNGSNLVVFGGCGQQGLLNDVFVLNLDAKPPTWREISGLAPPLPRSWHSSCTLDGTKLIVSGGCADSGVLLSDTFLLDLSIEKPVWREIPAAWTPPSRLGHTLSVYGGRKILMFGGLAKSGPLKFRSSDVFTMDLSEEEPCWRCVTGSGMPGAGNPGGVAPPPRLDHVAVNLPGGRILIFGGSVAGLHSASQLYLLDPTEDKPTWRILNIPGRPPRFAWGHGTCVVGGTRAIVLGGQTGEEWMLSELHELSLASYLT

T1: AtTZF4 full length, GAL4 DNA binding domain fusion (pAS1 bait) (Arabidopsis thaliana) (UniProt Q9ZWA1)
T1 sequence: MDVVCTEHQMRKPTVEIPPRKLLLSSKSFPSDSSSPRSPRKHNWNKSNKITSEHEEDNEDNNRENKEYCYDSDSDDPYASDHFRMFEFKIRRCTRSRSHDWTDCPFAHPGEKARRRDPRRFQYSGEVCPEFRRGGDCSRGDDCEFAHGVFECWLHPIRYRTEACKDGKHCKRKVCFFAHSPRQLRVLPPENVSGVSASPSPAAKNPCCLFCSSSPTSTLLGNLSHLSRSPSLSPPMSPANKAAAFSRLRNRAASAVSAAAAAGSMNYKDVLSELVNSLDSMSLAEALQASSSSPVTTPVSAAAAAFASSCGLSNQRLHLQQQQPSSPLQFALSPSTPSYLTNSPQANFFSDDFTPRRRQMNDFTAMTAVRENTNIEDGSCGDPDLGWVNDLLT

T2: AtTZF6 full length, GAL4 DNA binding domain fusion (pAS1 bait) (Arabidopsis thaliana) (UniProt O65036)
T2 sequence: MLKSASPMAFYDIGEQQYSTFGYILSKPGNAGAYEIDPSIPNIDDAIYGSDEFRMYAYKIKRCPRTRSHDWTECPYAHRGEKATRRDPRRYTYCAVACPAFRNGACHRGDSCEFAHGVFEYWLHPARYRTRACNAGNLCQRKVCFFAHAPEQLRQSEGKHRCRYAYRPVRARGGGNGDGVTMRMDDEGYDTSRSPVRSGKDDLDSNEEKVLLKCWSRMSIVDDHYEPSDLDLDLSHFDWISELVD

T3: Timing of CAB expression 1 (TOC1), GFP-tagged (Arabidopsis thaliana) (UniProt Q9LKL2)
T3 sequence: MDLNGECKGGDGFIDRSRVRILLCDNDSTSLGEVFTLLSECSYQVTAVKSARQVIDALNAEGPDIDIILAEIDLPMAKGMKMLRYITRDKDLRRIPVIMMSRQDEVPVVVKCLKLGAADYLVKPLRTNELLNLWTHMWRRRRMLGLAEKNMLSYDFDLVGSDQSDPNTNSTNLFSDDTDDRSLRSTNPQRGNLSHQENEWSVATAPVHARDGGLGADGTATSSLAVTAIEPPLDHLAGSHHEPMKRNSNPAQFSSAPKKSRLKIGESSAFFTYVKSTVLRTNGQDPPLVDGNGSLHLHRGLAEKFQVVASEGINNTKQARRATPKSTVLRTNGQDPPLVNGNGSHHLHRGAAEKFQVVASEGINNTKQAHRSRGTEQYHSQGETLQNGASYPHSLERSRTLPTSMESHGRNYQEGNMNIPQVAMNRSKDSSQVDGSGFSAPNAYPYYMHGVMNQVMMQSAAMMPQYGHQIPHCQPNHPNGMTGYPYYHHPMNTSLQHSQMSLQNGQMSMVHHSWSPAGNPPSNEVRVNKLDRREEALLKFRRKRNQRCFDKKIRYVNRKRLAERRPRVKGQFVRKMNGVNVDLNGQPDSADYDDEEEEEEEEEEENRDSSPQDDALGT

T4: AtTZF4, BiFC fusion (Arabidopsis thaliana) (UniProt Q9ZWA1)
T4 sequence: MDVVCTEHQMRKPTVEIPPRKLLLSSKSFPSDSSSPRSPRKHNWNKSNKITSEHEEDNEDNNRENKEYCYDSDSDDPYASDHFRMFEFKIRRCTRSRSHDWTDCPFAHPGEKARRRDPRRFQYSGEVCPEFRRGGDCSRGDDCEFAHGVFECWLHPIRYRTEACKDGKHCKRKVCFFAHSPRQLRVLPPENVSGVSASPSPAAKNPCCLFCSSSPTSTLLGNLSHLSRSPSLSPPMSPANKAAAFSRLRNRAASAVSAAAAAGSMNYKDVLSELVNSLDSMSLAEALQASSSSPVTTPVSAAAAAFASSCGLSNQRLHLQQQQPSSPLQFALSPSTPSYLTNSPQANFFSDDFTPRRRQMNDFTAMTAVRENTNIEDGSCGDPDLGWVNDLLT

T5: AtTZF5-CYFP (Arabidopsis thaliana) (UniProt Q9FKW2)
T5 sequence: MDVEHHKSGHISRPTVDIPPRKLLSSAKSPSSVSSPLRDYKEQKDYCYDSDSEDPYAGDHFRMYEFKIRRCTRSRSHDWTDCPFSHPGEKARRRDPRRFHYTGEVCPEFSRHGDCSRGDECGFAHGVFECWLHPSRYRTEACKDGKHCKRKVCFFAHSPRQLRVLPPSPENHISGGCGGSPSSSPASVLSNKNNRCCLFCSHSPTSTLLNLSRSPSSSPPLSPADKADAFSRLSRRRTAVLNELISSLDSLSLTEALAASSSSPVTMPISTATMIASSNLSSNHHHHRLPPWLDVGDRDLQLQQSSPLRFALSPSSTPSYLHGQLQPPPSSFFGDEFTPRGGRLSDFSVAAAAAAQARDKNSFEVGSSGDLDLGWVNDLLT

T6: AtTZF6, BiFC fusion (Arabidopsis thaliana) (UniProt O65036)
T6 sequence: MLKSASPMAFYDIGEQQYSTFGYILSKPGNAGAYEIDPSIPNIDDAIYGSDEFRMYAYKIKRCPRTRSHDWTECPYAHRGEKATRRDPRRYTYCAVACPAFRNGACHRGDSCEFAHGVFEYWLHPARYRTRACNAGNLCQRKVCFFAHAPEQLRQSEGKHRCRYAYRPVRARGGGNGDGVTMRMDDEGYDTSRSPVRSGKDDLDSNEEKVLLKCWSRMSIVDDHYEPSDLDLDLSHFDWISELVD

T7: GA stimulated Arabidopsis 6 (GASA6), GFP-tagged (Arabidopsis thaliana) (UniProt Q6NMQ7)
T7 sequence: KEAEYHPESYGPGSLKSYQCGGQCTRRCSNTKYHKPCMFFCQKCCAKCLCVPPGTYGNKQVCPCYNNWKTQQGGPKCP

T8: bZIP1-CYFP (Arabidopsis thaliana) (UniProt Q9FGX2)
T8 sequence: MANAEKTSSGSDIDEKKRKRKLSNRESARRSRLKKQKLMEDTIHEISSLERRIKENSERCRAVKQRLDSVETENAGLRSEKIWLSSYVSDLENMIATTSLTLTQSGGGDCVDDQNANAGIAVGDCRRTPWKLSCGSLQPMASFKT


Tests used:
[1] = target: T1, AtTZF4 full length, GAL4 DNA binding domain fusion (pAS1 bait) (Arabidopsis thaliana); experiment: two-hybrid; directed test in yeast PJ69-4A by co-expression of bait (GAL4 BD, pAS1) and prey (GAL4 AD); growth assay
[2] = target: T2, AtTZF6 full length, GAL4 DNA binding domain fusion (pAS1 bait) (Arabidopsis thaliana); experiment: as above
[3] = target: T3, Timing of CAB expression 1 (TOC1), GFP-tagged (Arabidopsis thaliana); experiment: co-IP; GFP-tagged and HA-tagged proteins co-expressed with p19 in N. benthamiana leaves by agroinfiltration; anti-GFP antibody on protein A Sepharose, 2 h at 4°C; co-IP products detected with anti-HA antibody
[4] = target: T4, AtTZF4, BiFC fusion (Arabidopsis thaliana); experiment: split reporter; BiFC with CYFP and NYFP fusions, paired constructs co-transformed into Arabidopsis protoplasts; YFP fluorescence by microscopy
[5] = target: T5, AtTZF5-CYFP (Arabidopsis thaliana); experiment: as above
[6] = target: T6, AtTZF6, BiFC fusion (Arabidopsis thaliana); experiment: as above
[7] = target: T7, GA stimulated Arabidopsis 6 (GASA6), GFP-tagged (Arabidopsis thaliana); experiment: co-IP; GFP-tagged and HA-tagged proteins co-expressed with p19 in N. benthamiana leaves by agroinfiltration; anti-GFP antibody on protein A Sepharose, 2 h at 4°C; co-IP products detected with anti-HA antibody
[8] = target: T8, bZIP1-CYFP (Arabidopsis thaliana); experiment: split reporter; BiFC with CYFP and NYFP fusions, paired constructs co-transformed into Arabidopsis protoplasts; YFP fluorescence by microscopy

| binding [1] | binding [2] | Molecule | other results |
| --- | --- | --- | --- |
| binds | binds | Responsive to Dehydration 21A (RD21A) full length, GAL4 activation domain fusion (pAD-GAL4-2.1 prey) (from UniProt P43297 1-462) | – |
| – | – | ZTL-HA (from UniProt Q94BT6 1-609) | binding [3]: binds |
| – | – | MARD1-NYFP (protein, UniProt Q8LGS1 1-263) MLRNKPRAAVTTKKQTSLLMADQPPPPKPNTCHCSPSLFSSPKFRFFTSKMMMTPFDSDFSLVSPTSILEANPSIFSSKNPKPVSYFEPTIPNPQRFHSPDVFGLADLVKDGDSNRDHSRKPVNKMVLFGSKLRVQIPSSADFGTKTGIRYPPCQLSPCVQTKVLAVSEIDQTEDYTRVISHGPNPTITHIFDNSVFVEATPCSVPLPQPAMETKSTESFLSRCFTCKKNLDQKQDIYIYRGEKGFCSSECRYQEMLLDQMET | binding [4]: binds; binding [5]: binds; binding [6]: binds |
| binds | binds | Mediator of ABA-Regulated Dormancy 1 (MARD1) full length, GAL4 activation domain fusion (pAD-GAL4-2.1 prey) (protein, UniProt Q8LGS1 1-263) MLRNKPRAAVTTKKQTSLLMADQPPPPKPNTCHCSPSLFSSPKFRFFTSKMMMTPFDSDFSLVSPTSILEANPSIFSSKNPKPVSYFEPTIPNPQRFHSPDVFGLADLVKDGDSNRDHSRKPVNKMVLFGSKLRVQIPSSADFGTKTGIRYPPCQLSPCVQTKVLAVSEIDQTEDYTRVISHGPNPTITHIFDNSVFVEATPCSVPLPQPAMETKSTESFLSRCFTCKKNLDQKQDIYIYRGEKGFCSSECRYQEMLLDQMET | – |
| – | – | AtMARD1 full length, HA-tagged (pGWB15) (protein, UniProt Q8LGS1 1-263) MLRNKPRAAVTTKKQTSLLMADQPPPPKPNTCHCSPSLFSSPKFRFFTSKMMMTPFDSDFSLVSPTSILEANPSIFSSKNPKPVSYFEPTIPNPQRFHSPDVFGLADLVKDGDSNRDHSRKPVNKMVLFGSKLRVQIPSSADFGTKTGIRYPPCQLSPCVQTKVLAVSEIDQTEDYTRVISHGPNPTITHIFDNSVFVEATPCSVPLPQPAMETKSTESFLSRCFTCKKNLDQKQDIYIYRGEKGFCSSECRYQEMLLDQMET | binding [7]: no binding |
| – | – | bZIP25-NYFP (protein, UniProt Q9M1G6 1-403) MHIVFSVDDLTESFWPVPAPAPSPGSSSTPSPTQNVADGMTRSQSEWAFHRLINELSGSDSSPTTNTIERSPPPVQSLSRLEETVDETEDVVEIQKPQNHRRLPVDDQGKNRNRAPSSDPVDSSAPVVVDPNQYHAILKSKLELACAAVARRVGTVKPEDSSASASNQKQAQGSIVAQTSPGASSVRFSPTTSTQKKPDVPARQTSISSRDDSDDDDLDGDADNGDPTDVKRARRMLSNRESARRSRRRKQEQMNEFDTQVGQLRAEHSTLINRLSDMNHKYDAAAVDNRILRADIETLRTKVKMAEETVKRVTGVNPLHWSRPNMGIPFSNTPSASSSIPPNSNHILKPANSSTNTSAGLAQNQRVETANFLPEQVNREGMQNPFAPDSNLYETLPHWNHKH | binding [8]: binds |
| no binding | no binding | DCP5, GAL4 activation domain fusion (protein, UniProt Q9C658 1-611) MAADNTGSKSSSAADSYVGSLISLTSKSEIRYEGILYNINTDESSIGLQNVRSFGTEGRKKDGPQVPPSDKVYEYILFRGTDIKDLQVKASPPVQPPASTINNDPAIIQSHYPSPMPTSGSLPSTASGSLPDISSHNGQPGQHGMGFQNAMPLYQPGGNLGSWGASPQPPMYWQGFYTPPPNGLPQLHQQSLIRPPHGLPMPNSLQQPLQYPNFNTPPPPTGSSSLQGSSLPEAPSSLFPFSTSSQMLAPSSLPFPGLPPVTLSSSLQSTLQSAPSPSLASEMAPPLLSNKAPITAPPTLPQDTNLLSFSLSTTRATEASTGLPLSNKPSVVTGPISPPQTTPLTSAPVAGVSSSISQDKPKPLLVTPGQLLQSGSSAVSLSPPSTNADKDVEVVQVSSSAGLEQSVPVTSEAQPPILPLPSSARPTQKPNGHSFPNHNGYRGRGRGRGRGAGRSHQVMKFTEDFDFTAMNEKFNKDEVWGHLGKSTTLDGDEDDDSPTVDEAELPKIEAKPVYNKDDFFDSLSSNTIDRESQNSRPRFSEQRKLDTETFGEFSRFRGGRGGRGGYGRNNGYSRGGYGGRGYGGYGGRGGGGGGYGYGGRGQGRGVSNRTT | – |
| no binding | no binding | polyA-binding protein PABP8, GAL4 activation domain fusion (protein, UniProt Q9FXA2 1-671) MAQIQHQGQNANGGVAVPGAAAAEAAAAAAGAAAAAAGAAQQGTTSLYVGDLDATVTDSQLFEAFTQAGQVVSVRVCRDMTTRRSLGYGYVNYATPQDASRALNELNFMALNGRAIRVMYSVRDPSLRKSGVGNIFIKNLDKSIDHKALHETFSAFGPILSCKVAVDPSGQSKGYGFVQYDTDEAAQGAIDKLNGMLLNDKQVYVGPFVHKLQRDPSGEKVKFTNVYVKNLSESLSDEELNKVFGEFGVTTSCVIMRDGEGKSKGFGFVNFENSDDAARAVDALNGKTFDDKEWFVGKAQKKSERETELKQKFEQSLKEAADKSQGSNLYVKNLDESVTDDKLREHFAPFGTITSCKVMRDPSGVSRGSGFVAFSTPEEATRAITEMNGKMIVTKPLYVALAQRKEDRKARLQAQFSQMRPVNMPPAVGPRMQMYPPGGPPMGQQLFYGQGPPAMIPQPGFGYQQQLVPGMRPGGSPMPNFFMPMMQQGQQQQQQQQQQQRPGGGRRGALPQPQQPSPMMQQQMHPRGRMYRYPQRDVNTMPGPTQNMLSVPYDVSSGGGVHHRDSPTSQPVPIVALATRLANAAPEQQRTMLGENLYPLVEQLEPESAAKVTGMLLEMDQTEVLHLLESPEALKAKVTEAMDVLRSVAQQQAGGAADQLASLSLGDNIVP | – |
